Some of the results follow.
Tests used:
Experiment in all cases: glycan array binding signal (z-score within array); higher = stronger binding
Settings in all cases: glycan notation: IUPAC condensed, linker removed
[1] = target: Neu5Ac(a2-3)Gal(b1-3)[Fuc(a1-4)]GlcNAc(b1-3)Gal(b1-3)[Fuc(a1-4)]GlcNAc
Method in brief: (§1)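 Glycan array data came from 3228 arrays in the Consortium for Functional Glycomics database, and only arrays with an available protein sequence were kept. Glycan names were put into IUPAC-condensed notation, and columns mapping to the same glycan were averaged. The binding signal is a within-array Z-score, averaged across arrays of one protein sequence run at different concentrations or buffers and across linkers. A negative Z-score can be read as non-binding.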

[2] = target: Neu5Ac(a2-3)Gal(b1-3)[Fuc(a1-4)]GlcNAc(b1-3)Gal(b1-4)[Fuc(a1-3)]GlcNAc
Method in brief: as §1

[3] = target: Neu5Ac(a2-3)Gal(b1-3)[GlcNAc(b1-6)]GalNAc
Method in brief: as §1

[4] = target: Neu5Ac(a2-3)Gal(b1-3)[Neu5Ac(a2-3)Gal(b1-4)]GlcNAc
Method in brief: as §1

[5] = target: Neu5Ac(a2-3)Gal(b1-3)[Neu5Ac(a2-6)]GalNAc
Method in brief: as §1

[6] = target: Neu5Ac(a2-3)Gal(b1-3)[Neu5Ac(a2-6)]GlcNAc(b1-3)[Fuc(a1-3)[Gal(b1-4)]GlcNAc(b1-6)]Gal(b1-4)Glc
Method in brief: as §1

[7] = target: Neu5Ac(a2-3)Gal(b1-3)]Neu5Ac(a2-3)Gal(b1-4)]GlcNAc
Method in brief: as §1

Neu5Ac(a2-3)Gal(b1-4)Glc = target: Neu5Ac(a2-3)Gal(b1-4)Glc
Method in brief: as §1

[8] = target: Neu5Ac(a2-3)Gal(b1-4)GlcNAc
Method in brief: as §1

[9] = target: Neu5Ac(a2-3)Gal(b1-4)GlcNAc(b1-2)Man
Method in brief: as §1

[10] = target: Neu5Ac(a2-3)Gal(b1-4)GlcNAc(b1-2)Man(a1-3)[GlcNAc(b1-4)][Neu5Ac(a2-3)Gal(b1-4)GlcNAc(b1-2)Man(a1-6)]Man(b1-4)GlcNAc(b1-4)GlcNAc
Method in brief: as §1

[11] = target: Neu5Ac(a2-3)Gal(b1-4)GlcNAc(b1-2)Man(a1-3)[Neu5Ac(a2-3)Gal(b1-4)GlcNAc(b1-2)Man(a1-6)]Man(b1-4)GlcNAc(b1-4)GlcNAc
Method in brief: as §1

[12] = target: Neu5Ac(a2-3)Gal(b1-4)GlcNAc(b1-2)Man(a1-3)[Neu5Ac(a2-3)Gal(b1-4)GlcNAc(b1-2)Man(a1-6)]Man(b1-4)GlcNAc(b1-4)[Fuc(a1-6)]GlcNAc
Method in brief: as §1

[13] = target: Neu5Ac(a2-3)Gal(b1-4)GlcNAc(b1-2)Man(a1-3)[Neu5Ac(a2-6)Gal(b1-4)GlcNAc(b1-2)Man(a1-6)]Man(b1-4)GlcNAc(b1-4)GlcNAc
Method in brief: as §1

[14] = target: Neu5Ac(a2-3)Gal(b1-4)GlcNAc(b1-2)[Neu5Ac(a2-3)Gal(b1-4)GlcNAc(b1-4)]Man(a1-3)[GlcNAc(b1-4)][Neu5Ac(a2-3)Gal(b1-4)GlcNAc(b1-2)[Neu5Ac(a2-3)Gal(b1-4)GlcNAc(b1-6)]Man(a1-6)]Man(b1-4)GlcNAc(b1-4)GlcNAc
Method in brief: as §1

[15] = target: Neu5Ac(a2-3)Gal(b1-4)GlcNAc(b1-2)[Neu5Ac(a2-3)Gal(b1-4)GlcNAc(b1-4)]Man(a1-3)[GlcNAc(b1-4)][Neu5Ac(a2-3)Gal(b1-4)GlcNAc(b1-4)Man(a1-6)]Man(b1-4)GlcNAc(b1-4)GlcNAc
Method in brief: as §1

[16] = target: Neu5Ac(a2-3)Gal(b1-4)GlcNAc(b1-2)[Neu5Ac(a2-3)Gal(b1-4)GlcNAc(b1-6)]Man(a1-6)[Neu5Ac(a2-3)Gal(b1-4)GlcNAc(b1-2)Man(a1-3)]Man(b1-4)GlcNAc(b1-4)GlcNAc
Method in brief: as §1

[17] = target: Neu5Ac(a2-3)Gal(b1-4)GlcNAc(b1-2)[Neu5Ac(a2-3)Gal(b1-4)GlcNAc(b1-6)]Man(a1-6)[Neu5Ac(a2-3)Gal(b1-4)GlcNAc(b1-2)Man(a1-3)][GlcNAc(b1-4)]Man(b1-4)GlcNAc(b1-4)GlcNAc
Method in brief: as §1

[18] = target: Neu5Ac(a2-3)Gal(b1-4)GlcNAc(b1-3)Gal
Method in brief: as §1

[19] = target: Neu5Ac(a2-3)Gal(b1-4)GlcNAc(b1-3)Gal(b1-3)GlcNAc
Method in brief: as §1

[20] = target: Neu5Ac(a2-3)Gal(b1-4)GlcNAc(b1-3)Gal(b1-4)GlcNAc
Method in brief: as §1

[21] = target: Neu5Ac(a2-3)Gal(b1-4)GlcNAc(b1-3)Gal(b1-4)GlcNAc(b1-2)Man(a1-3)[Neu5Ac(a2-3)Gal(b1-4)GlcNAc(b1-3)Gal(b1-4)GlcNAc(b1-2)Man(a1-6)]Man(b1-4)GlcNAc(b1-4)GlcNAc
Method in brief: as §1

[22] = target: Neu5Ac(a2-3)Gal(b1-4)GlcNAc(b1-3)Gal(b1-4)GlcNAc(b1-3)Gal(b1-4)GlcNAc
Method in brief: as §1

[23] = target: Neu5Ac(a2-3)Gal(b1-4)GlcNAc(b1-3)Gal(b1-4)GlcNAc(b1-3)Gal(b1-4)GlcNAc(b1-2)Man(a1-3)[Neu5Ac(a2-3)Gal(b1-4)GlcNAc(b1-3)Gal(b1-4)GlcNAc(b1-3)Gal(b1-4)GlcNAc(b1-2)Man(a1-6)]GalNAc
Method in brief: as §1

[24] = target: Neu5Ac(a2-3)Gal(b1-4)GlcNAc(b1-3)Gal(b1-4)GlcNAc(b1-3)GalNAc
Method in brief: as §1

[25] = target: Neu5Ac(a2-3)Gal(b1-4)GlcNAc(b1-3)Gal(b1-4)GlcNAc(b1-3)[Neu5Ac(a2-3)Gal(b1-4)GlcNAc(b1-3)Gal(b1-4)GlcNAc(b1-6)]GalNAc
Method in brief: as §1

[26] = target: Neu5Ac(a2-3)Gal(b1-4)GlcNAc(b1-3)Gal(b1-4)GlcNAc(b1-6)[Gal(b1-3)]GalNAc
Method in brief: as §1

[27] = target: Neu5Ac(a2-3)Gal(b1-4)GlcNAc(b1-3)Gal(b1-4)[Fuc(a1-3)]GlcNAc
Method in brief: as §1

[28] = target: Neu5Ac(a2-3)Gal(b1-4)GlcNAc(b1-3)GalNAc
Method in brief: as §1

[29] = target: Neu5Ac(a2-3)Gal(b1-4)GlcNAc(b1-3)[Neu5Ac(a2-3)Gal(b1-4)GlcNAc(b1-6)]GalNAc
Method in brief: as §1

[30] = target: Neu5Ac(a2-3)Gal(b1-4)GlcNAc(b1-6)GalNAc
Method in brief: as §1

[31] = target: Neu5Ac(a2-3)Gal(b1-4)GlcNAc(b1-6)[Gal(b1-3)]GalNAc
Method in brief: as §1

[32] = target: Neu5Ac(a2-3)Gal(b1-4)GlcNAc(b1-6)[Neu5Ac(a2-3)Gal(b1-3)]GalNAc
Method in brief: as §1

[33] = target: Neu5Ac(a2-3)Gal(b1-4)GlcNAc6S
Method in brief: as §1

[34] = target: Neu5Ac(a2-3)Gal(b1-4)[Fuc(a1-3)]GlcNAc
Method in brief: as §1

[35] = target: Neu5Ac(a2-3)Gal(b1-4)[Fuc(a1-3)]GlcNAc(b1-2)Man
Method in brief: as §1

[36] = target: Neu5Ac(a2-3)Gal(b1-4)[Fuc(a1-3)]GlcNAc(b1-3)Gal
Method in brief: as §1

[37] = target: Neu5Ac(a2-3)Gal(b1-4)[Fuc(a1-3)]GlcNAc(b1-3)Gal(b1-4)GlcNAc
Method in brief: as §1

[38] = target: Neu5Ac(a2-3)Gal(b1-4)[Fuc(a1-3)]GlcNAc(b1-3)Gal(b1-4)[Fuc(a1-3)]GlcNAc(b1-3)Gal(b1-4)[Fuc(a1-3)]GlcNAc
Method in brief: as §1

[39] = target: Neu5Ac(a2-3)Gal(b1-4)[Fuc(a1-3)]GlcNAc(b1-3)GalNAc
Method in brief: as §1

[40] = target: Neu5Ac(a2-3)Gal(b1-4)[Fuc(a1-3)]GlcNAc(b1-6)[Gal(b1-3)]GalNAc
Method in brief: as §1

B1: NPA (Narcissus pseudonarcissus), C0HM45 (protein)
chain: DNILYSGETLSPGEFLNNGRYVFIMQEDCNLVLYDVDKPIWATNTGGLDRRCHLSMQSDGNLVVYSPRNNPIWASNTGGENGNYVCVLQKDRNVVIYGTARWATGTNIH
[1]
  glycan array binding signal (z-score): -0.046
[2]
  glycan array binding signal (z-score): -0.112
[3]
  glycan array binding signal (z-score): -0.14
[4]
  glycan array binding signal (z-score): -0.213
[5]
  glycan array binding signal (z-score): -0.138
[6]
  glycan array binding signal (z-score): -0.158
[7]
  glycan array binding signal (z-score): -0.145
Neu5Ac(a2-3)Gal(b1-4)Glc
  glycan array binding signal (z-score): -0.144
[8]
  glycan array binding signal (z-score): -0.154
[9]
  glycan array binding signal (z-score): -0.128
[10]
  glycan array binding signal (z-score): -0.15
[11]
  glycan array binding signal (z-score): -0.144
[12]
  glycan array binding signal (z-score): -0.151
[13]
  glycan array binding signal (z-score): -0.145
[14]
  glycan array binding signal (z-score): -0.155
[15]
  glycan array binding signal (z-score): -0.153
[16]
  glycan array binding signal (z-score): -0.086
[17]
  glycan array binding signal (z-score): -0.158
[18]
  glycan array binding signal (z-score): -0.164
[19]
  glycan array binding signal (z-score): -0.149
[20]
  glycan array binding signal (z-score): -0.143
[21]
  glycan array binding signal (z-score): -0.03
[22]
  glycan array binding signal (z-score): -0.151
[23]
  glycan array binding signal (z-score): 0.14
[24]
  glycan array binding signal (z-score): -0.144
[25]
  glycan array binding signal (z-score): -0.123
[26]
  glycan array binding signal (z-score): -0.122
[27]
  glycan array binding signal (z-score): -0.159
[28]
  glycan array binding signal (z-score): -0.139
[29]
  glycan array binding signal (z-score): -0.15
[30]
  glycan array binding signal (z-score): -0.144
[31]
  glycan array binding signal (z-score): -0.146
[32]
  glycan array binding signal (z-score): -0.152
[33]
  glycan array binding signal (z-score): -0.154
[34]
  glycan array binding signal (z-score): -0.154
[35]
  glycan array binding signal (z-score): -0.152
[36]
  glycan array binding signal (z-score): -0.162
[37]
  glycan array binding signal (z-score): -0.15
[38]
  glycan array binding signal (z-score): -0.143
[39]
  glycan array binding signal (z-score): -0.089
[40]
  glycan array binding signal (z-score): -0.118
